Assay results as given in PubChem BioAssay AID463173 (ICCB-Longwood Screening Facility, Harvard Medical School, 2010).
About 1,700 (3.3%) of roughly 52,000 compounds were called active. No stated cut-off is given here; in the data, active means survival mostly below about 52% (no sharp cut-off); inactive means mostly above about 56%. The list shows a part of the results.

System: Wild type
Assay: S. aureus survival, RN4220 and DeltatarO strains – OD600, teichoic acid synthesis inhibitors, primary screen (AID 463173)
Details: S. aureus RN4220 wild type/DeltatarO growth, OD600, 18 h, active compounds read low, screened at 18.75 µg/mL (by protocol)

Row | SMILES | survival
1 | Cc1ccccc1CCNC(=O)c1ccc(NC(=O)N2CC(C)Sc3ccccc32)cc1 (stereo not drawn) | inactive: 96%
2 | O=C(COc1ccc(Cl)cc1)NCC(c1ccco1)S(=O)(=O)c1ccccc1 (stereo not drawn) | inactive: 98%
3 | COc1ccccc1NC(=O)c1sc2nc3c(c(C(F)(F)F)c2c1N)CN(C(C)=O)CC3 | inactive: 97%
4 | Cc1nn(-c2ccc(N3CCOCC3)nn2)c(C)c1CCC(=O)NCc1ccccc1 | inactive: 86%
5 | Cc1cc(C)c(NC(=O)CSc2n[nH]c(-c3ccccc3Cl)n2)c(C)c1 | inactive: 64%
6 | COC(=O)C1CC(C)=CC(C)C1C(=O)O (stereo not drawn) | inactive: 100%
7 | COc1cc(C2C(=O)N(C3CCCCCC3)CC(=O)N2Cc2ccccc2)ccc1OC(C)C (stereo not drawn) | inactive: 79%
8 | C=C(C)Cn1c(=O)c2c(nc3n2CCN3c2cc(C)cc(C)c2)n(C)c1=O | inactive: 83%
9 | COc1ccc(N2CCN(C(=O)C3CCN(Cc4nc(-c5ccc(Cl)cc5)oc4C)CC3)CC2)cc1 | inactive: 82%
10 | CN(C)CCNC(=O)CN1N=C(c2ccccc2)CCC1=O | inactive: 159%
11 | COC(=O)c1ccc(NC(=O)CN(Cc2ccccc2)S(=O)(=O)c2ccc(C)cc2)cc1 | inactive: 57%
12 | O=C(O)c1noc2c1CCCC2 | inactive: 92%
13 | Cc1cc2ncn(S(=O)(=O)c3ccc(S(=O)(=O)NC4CCCCC4)cc3)c2cc1C | inactive: 100%
14 | COc1ccc(NC(=O)c2cnc(Nc3ccc(C)c(Cl)c3)c3ccccc23)c(OC)c1 | inactive: 79%
15 | CCCSc1ncc(Cl)c(C(=O)Nc2ccc(S(=O)(=O)N3CCC(C)CC3)cc2)n1 | inactive: 93%
16 | CCOc1ccc(NC(=O)Cn2cc(C(=O)c3ccc(CC)cc3)c(=O)c3cc4c(cc32)OCO4)cc1 | inactive: 77%
17 | Cc1ccc(Cl)cc1N1CCN(C(=O)c2cnn(C(C)(C)C)c2C2CCN(C(=O)OC(C)(C)C)CC2)CC1 | inactive: 75%
18 | CCCC(=O)N1CCc2cc(OC)c(OC)cc2C1COc1ccc2c(C)cc(=O)oc2c1 (stereo not drawn) | inactive: 78%
19 | COc1ccc2c(c1)CC(C(=O)NCCN1CCN(c3ccccc3F)CC1)CO2 (stereo not drawn) | inactive: 60%
20 | COc1ccc(CNc2nc(-c3ccc(OC)cc3)cc(C(F)(F)F)n2)cc1 | active: -5%

Row | SMILES | survival
21 | CCc1ccc(NC(=O)CN2CCN(C3CCCCC3)C(=O)C2=O)cc1 | inactive: 77%
22 | CCC(Sc1ncc(S(=O)(=O)c2ccc(C)cc2)c(=O)[nH]1)C(=O)Nc1cc(C)ccc1C (stereo not drawn) | inactive: 124%
23 | O=C(Nc1c(C(=O)c2ccc(Cl)cc2)oc2ccccc12)c1cc(=O)c2ccccc2o1 | inactive: 113%
24 | O=C(Cn1cc(SCc2ccc(Br)cc2)c2ccccc21)N1CCCCC1 | inactive: 85%
25 | Cc1ccc(/C=C(\C#N)C(=O)Nc2ccc(Br)cc2)o1 | inactive: 96%
26 | Cn1nnnc1SCCCNCc1cccc(OCc2ccccc2F)c1 | inactive: 93%
27 | COc1ccc(CCN2C(=O)NC(NC(=O)c3ccccc3OC)(C(F)(F)F)C2=O)cc1OC (stereo not drawn) | inactive: 67%
28 | CCc1nc2ccc(C(=O)NCc3ccc(N(C)C)cc3)cc2nc1CC | inactive: 95%
29 | Cc1ccc2oc(=O)c(S(=O)(=O)c3ccc(F)cc3)cc2c1 | inactive: 76%
30 | COc1ccc(NC(=O)c2ccco2)cc1NC(=O)c1ccc(C)c(C)c1 | inactive: 69%
31 | CCN(C(=O)CSc1nc2ccccc2n1Cc1ccc(C(=O)OC)cc1)c1ccccc1 | inactive: 76%
32 | CC(C)NC(=O)C1CC(c2ccc(Cl)cc2)=NO1 (stereo not drawn) | inactive: 110%
33 | CCn1c(SCC(=O)NC2CCCC2)nnc1C(C)C | inactive: 104%
34 | Cc1cccc(C)c1Nc1c(-c2ccc(N3CCOCC3)cc2)nc2ncccn12 | inactive: 75%
35 | Cc1ccc(-c2cc(C(F)(F)F)n3nc(-c4cccc(Br)c4)cc3n2)cc1 | inactive: 68%
36 | CC(=O)Nc1ccc(NC(=O)CN2C(=O)CC(c3ccco3)Sc3ccccc32)cc1 (stereo not drawn) | inactive: 99%
37 | CCc1cccc2c(C#N)cn(CC(=O)NCCOC)c12 | inactive: 100%
38 | COc1ccc(N2CCN(C(=O)CN3CCSc4ccccc43)CC2)cc1 | inactive: 51%
39 | CCn1c(=O)cc(OCC(=O)N2CCN(c3ccc(C(C)=O)cc3)CC2)c2ccccc21 | inactive: 92%
40 | CN(C(=O)c1c[nH]c2ccc(S(=O)(=O)Nc3cccc(C(F)(F)F)c3)cc2c1=O)C1CCCCC1 | inactive: 71%

Row | SMILES | survival
41 | O=C(Cn1nc(Cc2ccncc2)c2ccccc2c1=O)Nc1cccc(C(F)(F)F)c1 | inactive: 73%
42 | CNC(=O)c1c(NC(=O)c2cc(=O)c3cc(C)c(C)cc3o2)sc2c1CCCC2 | inactive: 91%
43 | CCN(CC)CCN(C(=O)c1ccco1)c1nc2c(C)c(C)ccc2s1 | inactive: 73%
44 | Cc1ccc(CSCCC(=O)N2CCN(c3ccc(F)cc3)CC2)cc1 | inactive: 73%
45 | COc1ccccc1CNC(=O)Cn1c(-c2ccc(F)cc2)cc(C(C)=O)c1C | inactive: 78%
46 | Cc1c(Cl)cccc1N1CCn2c1nc1c2c(=O)n(CC(=O)O)c(=O)n1C | inactive: 72%
47 | COc1ccc(Cl)cc1NC(=O)Nc1c[nH]c(=O)[nH]c1=O | inactive: 83%
48 | CCCCNC(=O)CC1Nc2cc(C)c(C)cc2NC1=O (stereo not drawn) | inactive: 74%
49 | COc1ccccc1NC(=O)c1nn(C)c2c1CS(=O)(=O)c1ccccc1-2 | inactive: 83%
50 | CN(C)S(=O)(=O)c1ccc(C(=O)NCCSc2c(-c3ccc(Br)cc3)[nH]c3ccccc23)cc1 | inactive: 88%
51 | Cc1ccc(NC(=O)C2CCCN(c3ncnc4onc(C)c34)C2)c(Cl)c1 (stereo not drawn) | inactive: 71%
52 | O=C(CCSCc1ccc(Cl)cc1)NCCc1ccccc1 | active: -6%
53 | O=C(NCCc1ccc(Cl)cc1)c1nnc(Cc2ccc(F)cc2)o1 | inactive: 99%
54 | O=C(Nc1ccc(-c2nc3ccccc3o2)c(O)c1)c1cc(Cl)ccc1Cl | inactive: 67%
55 | COc1cc(OC)cc(C(=O)Nc2ccc3nc4c(c(Nc5ccc(OC)c(OC)c5)c3c2)CCCC4)c1 | inactive: 134%
56 | CCCCc1ccc(Nc2cc(C)nc(-n3nc(C)cc3C)n2)cc1 | inactive: 55%
57 | CC1CNc2ccccc2NC1=O (stereo not drawn) | inactive: 102%
58 | CCN(C(=O)CCS(=O)(=O)c1ccc2c(c1)CCN2C(C)=O)c1cccc(C(F)(F)F)c1 | inactive: 81%
